Here are results for 19 variants from the RNAGym collection of RNA variant scans (doi:10.1073/pnas.2313332121).

Variants at the floor of the assay are shown more often than the library holds them.

Sequences and labels used below:
B1: TPR 5TU (parent)
chain: GGAUCUUCUCGAUCUAACAAAAAAGACAAAUCUGCCACAAAGCUUGAGAGCAUCUUCGGAUGCAGAGGCGGCAGCCUUCGGUGGCGCGAUAGCGCCAACGUUCUCAACUAUGACACGCAAAACGCGUGCUCCGUUGAAUGGAGUUUAUCAUG

In the data set the parent is B1. The data set can be described thus: polymerase ribozyme fitness, log enrichment relative to wild type (log ratio); higher = more active; in vitro selection for triplet polymerase activity. The method, boiled down:
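Streptavidin-bead capture of gel-excised extended constructs, followed by RT-PCR, closed a single triplicate in vitro selection round. That round began by annealing PCR-built, transcribed mutant libraries of each subunit of a heterodimeric triplet polymerase ribozyme with a biotinylated primer, the partner subunit and triplets, then incubating them frozen at −7 °C. After Illumina sequencing of inputs and outputs, genotypes needed ≥10 input reads and ≥1 read per output. Fitness is the base-2 logarithm of genotype enrichment over wild-type enrichment, using inverse-variance-weighted replicate averages.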
Consider GGAUCUUCUCGAUCUAACAAAAAAGACAAAUCUGCCACAAAGCUUGAGAGCAUCUUCGAAUGCAGAGGCGGCAACCUUCGGUGGCGCGAUAGCGCCAACGUUCUCAACUAUGACACGCAAAACGCGUGCUCCGUUGAAUGGAGUUUAUCAUG [G59A G74A], for which the “polymerase ribozyme fitness (log ratio)” value is -3.23. GGAUCUUCUCGAUCUAACAAAAAAGACAAAUCUGCCACAAAGCUUGAGAGCAUCUUCGCAUGCAGAGGCGGCAGCGUUCGGUGGCGCGAUAGCGCCAACGUUCUCAACUAUGACACGCAAAACGCGUGCUCCGUUAAAUGGAGUUUAUCAUG [G59C C76G G136A]: the “polymerase ribozyme fitness (log ratio)” value is at most -4.2. The same measure for GGAUCUUCUCGAUCUAACAAAAAAGACAAAUCUGCCACAAAGCUUGAGAGCAUCUUCGAAUGCAGAGUCGGCAGCCUUCGGUCGCGCGAUUGCGCCAACGUUCUCAACUAUGACACGCAAAACGCGUGCUCCGUUGAAUGGAGUUUAUCAUG [G59A G68U G83C A91U]: at most -4.2; for GGAUCUUCUCGAUCUAACAAAAAAGACAAAUCUGCCACAAAGCUUGAGAGCAUCUUCGAAUGCAGAAGCGGCAGCCUUCGGUGGGGCCAUAGAGCCAACGUUCUCAACUAUGACACGCAAAACGCGUGCUCCGUUGAAUGGAGUUUAUCAUG [G59A G67A C85G G88C C93A]: at most -4.2; for GGAUCUUCUCGAUCUAACAAAAAAGACAAAUCUGCCACAAAGCUUGAGAGCAUCUUCGAAUGCAGAGGCGGCAGCCUUCGGUGGCGCGAUAUCGCCAACGUUCUCAACUAUGAAACGCUAAACGCGUGCUCCGUUGAAUGGAGUUUAUCAUG [G59A G92U C114A A119U]: -3.59.

For GGAUCUUCUCGAUCUAACAAAAAAGACAAAUCUGCCACAAAGCUUGAGAGCAUCUUCGAAUGCAGAGGCGGCAGCCUUCGGUGGCGCGACAGCGCCAACGUUCUGCACUAUGACACGCAAAACGCGUGCUCCGUUGAAUGGAGUUUAUCAUG [G59A U90C C105G A106C], the “polymerase ribozyme fitness (log ratio)” value was at most -4.2. GGAUCUUCUCGAUCUAACAAAAAAGACAAAUCUGCCACAAAGCUUGAGAGCAUCUUCGAAUGCAGAAGUGGCAGCCUUCGGUGGCGCGAUAGCGCCAACGUUCUCAACUAGGACACUCAAAACGCGUGCUCCGUUGAAUGGAGUUUAUCAUG [G59A G67A C69U U111G G117U]: the “polymerase ribozyme fitness (log ratio)” value was at most -4.2. The same measure for GGAUCUUCUCGAUCUAACAAAAAAGACAAAUCUGCCACAAAGCUUGAGAGCAUCUUCGAAUGCAGAGGCGGCAGCCUUCGGUGGCGCGAUAGCGCCAACCUUCUCAACUAUGACACGCAAAACGCGUGCUCCGUUGAAUGGUGUUUAUCAUG [G59A G100C A142U]: at most -4.2; for GGAUCUUCUCGAUCUAACAAAAAAGACAAAUCUGCCACAAAGCUUGAGAGCAUCUUCGAAUGCAGAGGCGGCAGCCUUCGGUGGCUCGAUAGCGCCAACGUUCUCAACUAUGACACGCAAAACGCGUGCUCCGUUGAAUGGAGUUUAUCAUG [G59A G86U]: -1.84; for GGAUCUUCUCGAUCUAACAAAAAAGACAAAUCUGCCACAAAGCUUGAGAGCAUCUUCGCAUGCAGAGGCGGCAGCCUUCGGUGGCGCGAUAGGGCCAACGUUCUCAACUAUGACACGCAAAACGCGUGCUCCGUUGAAUUGAGUUUAUCAUG [G59C C93G G140U]: at most -4.2. As for GGAUCUUCUCGAUCUAACAAAAAAGACAAAUCUGCCACAAAGCUUGAGAGCAUCUUCGCAUGCGGAGCCGGCAGCCUUCGGUGGCGCGAUAGCGCCAACGUUCUCAACUAUGACACGCAAAACGCGUGCUCCGUUGAAUAGAGUUUAUCAUG [G59C A64G G68C G140A], the “polymerase ribozyme fitness (log ratio)” value is at most -4.2. In the case of GGAUCUUCUCGAUCUAACAAAAAAGACAAAUCUGCCACAAAGCUUGAGAGCAUCUUCGAAUGCAGAGGCGGCAGCCUUCGGUGGCGCGAGAGCGCCAACGUUCUCAACUAUGACACGCAAAACGCGUGCUCCGUUGAAUGGAGGUUAUCAUG [G59A U90G U144G], the “polymerase ribozyme fitness (log ratio)” value was at most -4.2.

For the variant GGAUCUUCUCGAUCUAACAAAAAAGACAAAUCUGCCACAAAGCUUGAGAGCAUCUUCGCCUGCAGAGGCGGCAGCCUUCGGUGGCGCGAUAGCGCCAACGUUCUCAACUAUGACACGCAAAACGCGUGCUCCGUUGUAUGGAGUUUAUCAUG [G59C A60C A137U], the “polymerase ribozyme fitness (log ratio)” value was at most -4.2. The same measure for GGAUCUUCUCGAUCUAACAAAAAAGACAAAUCUGCCACAAAGCUUGAGAGCAUCUUCGAAUGCAGAGGCGGCAGCCUUCGGUGGCGCCAUAUCGCCAACGUUCUCAACUAUGACACGCAAAACGCGUGCUCCGUUGAAUGGAGUUUAUCAUG [G59A G88C G92U]: at most -4.2. Take GGAUCUUCUCGAUCUAACAAAAAAGACAAAUCUGCCACAAAGCUUGAGAGCAUCUUCGCAUGCAGAGGCGGAAGCCUUCGGUGGCGCGAUAGCGUCAACAUUCUCAACUAUGACACGCAAAACGCGUGCUCCGUUGAAUGCAGUUUAUCAUG [G59C C72A C95U G100A G141C]: the “polymerase ribozyme fitness (log ratio)” value was at most -4.2. For the variant GGAUCUUCUCGAUCUAACAAAAAAGACAAAUCUGCCACAAAGCUUGAGAGCAUCUUCGAAUGCAGAGGCGGCAGCCUUCGGUGGCGCGAUAUGGCCAACGUUCUCAACUAUGAAACGCAAAACGCGUGCUCCGUUGAAUGGAGUUUAUCAUG [G59A G92U C93G C114A], the “polymerase ribozyme fitness (log ratio)” value is at most -4.2. As to GGAUCUUCUCGAUCUAACAAAAAAGACAAAUCUGCCACAAAGCUUGAGAGCAUCUUCGAAUGCAGAGGCGGCAGCCUUCGGUGUCGCGAUACCGGCAACGUUCUCAACUAUGACACGCAAAACCCGUGCUCCGUUGAAUGGAGUUUAUCAUG [G59A G84U G92C C95G G124C], the “polymerase ribozyme fitness (log ratio)” value was -2.69. Consider GGAUCUUCUCGAUCUAACAAAAAAGACAAAUCUGCCACAAAGCUUGAGAGCAUCUUCGCAUUCAGAGGCCGCAGCCUUCGGUGGCGCGAUACCGCCAACGUUCUCAACUAUGACACGCAAAACGCGUGCUCCGUUGAAUGGAGUUUAUCAUG [G59C G62U G70C G92C], for which the “polymerase ribozyme fitness (log ratio)” value was at most -4.2. The same measure for GGAUCUUCUCGAUCUAACAAAAAAGACAAAUCUGCCACAAAGCUUGAGAGCAUCUUCGCAUGCAGAGGCGGCAGCCUUCGGUGGCGCGAUAGCGUCAACGUUCUCAACUAUGACACGCAAAACGCGUGCUCCGUUGAAUGGAGUUUAUCAUG [G59C C95U]: 0.0454.
